Data on 88 compounds can be found in PMC4336329 (PLoS ONE, 2015).

Out of some 310,000 compounds screened, about 14,000 (4.5%) showed an effect of 50% or more. The effect is printed as a negative number. This is one part of the list.
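Further: peak tail current of the secondary pulse compared with the same well before compound.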

The target of this test is human ether-à-go-go-related gene (hERG) potassium channel (human, UniProt Q12809). Put plainly: primary screen, population patch clamp on CHO cells stably expressing hERG.
Chain of human ether-à-go-go-related gene (hERG) potassium channel (Q12809 whole entry, looked up): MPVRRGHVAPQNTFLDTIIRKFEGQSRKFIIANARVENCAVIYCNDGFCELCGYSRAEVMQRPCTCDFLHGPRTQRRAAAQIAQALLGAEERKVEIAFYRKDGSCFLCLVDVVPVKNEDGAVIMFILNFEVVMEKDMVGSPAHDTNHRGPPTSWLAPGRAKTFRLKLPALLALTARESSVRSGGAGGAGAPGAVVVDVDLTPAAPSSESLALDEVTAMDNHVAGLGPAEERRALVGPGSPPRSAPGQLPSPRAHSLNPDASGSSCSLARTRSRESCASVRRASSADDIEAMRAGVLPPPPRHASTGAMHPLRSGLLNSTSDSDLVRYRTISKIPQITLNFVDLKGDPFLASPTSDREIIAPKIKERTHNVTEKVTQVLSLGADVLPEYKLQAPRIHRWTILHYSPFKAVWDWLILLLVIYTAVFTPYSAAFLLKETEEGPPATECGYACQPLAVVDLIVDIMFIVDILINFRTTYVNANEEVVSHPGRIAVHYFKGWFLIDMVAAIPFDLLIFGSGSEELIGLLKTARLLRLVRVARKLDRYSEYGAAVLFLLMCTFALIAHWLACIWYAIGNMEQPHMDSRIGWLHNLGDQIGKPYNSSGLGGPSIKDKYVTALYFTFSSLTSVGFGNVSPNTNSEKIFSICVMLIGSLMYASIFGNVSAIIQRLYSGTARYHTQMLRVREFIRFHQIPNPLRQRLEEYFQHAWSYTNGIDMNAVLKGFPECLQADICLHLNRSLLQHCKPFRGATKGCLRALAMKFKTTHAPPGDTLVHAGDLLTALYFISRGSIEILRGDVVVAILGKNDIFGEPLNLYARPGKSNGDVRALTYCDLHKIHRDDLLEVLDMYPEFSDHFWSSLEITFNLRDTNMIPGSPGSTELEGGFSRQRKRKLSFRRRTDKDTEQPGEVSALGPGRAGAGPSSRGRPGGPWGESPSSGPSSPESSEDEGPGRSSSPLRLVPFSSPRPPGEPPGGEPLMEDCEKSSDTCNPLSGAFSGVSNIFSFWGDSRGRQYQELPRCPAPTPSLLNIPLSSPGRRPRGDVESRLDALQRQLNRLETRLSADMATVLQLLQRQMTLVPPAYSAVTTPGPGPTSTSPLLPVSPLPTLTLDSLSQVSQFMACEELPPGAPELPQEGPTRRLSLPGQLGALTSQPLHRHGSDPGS
Turning to `COc1ccc(C(=O)c2nccc3ccccc23)cc1`, the “hERG current change (%, negative = inhibition) at 10uM” value is 0.535%. The figure for `COc1ccc(C(=O)Nc2cccc(NC(=O)c3cccs3)c2)cc1` is -7.05%. The figure for `O=C(O)c1ccccc1-c1ccccc1C(=O)Nc1ccc2c(c1)[nH]c(=O)c1ccccc12` is 24.5%.

With `Cc1ccc(NC(=O)NC(=O)CSc2nnnn2C)c(C)c1`, the “hERG current change (%, negative = inhibition) at 10uM” value is 2.01%. Take `O=C1CC(c2ccccc2)SC(N(c2ccccc2)c2ccccc2)=N1` (stereo not shown): the “hERG current change (%, negative = inhibition) at 10uM” value is -0.167%.

In the case of `O=C(O)c1ccc(/C=N/NC(=O)c2cc(-c3cccs3)nc3ccccc23)cc1`, the “hERG current change (%, negative = inhibition) at 10uM” value is 12.4%. For `Cc1cc(N2CCOCC2)nc(NCc2ccccc2)n1` the value was -35.4%; for `O=C(O)C1Nc2c(O)cc(Cl)c([N+](=O)[O-])c2C2C=CCC12` (stereo not shown), 18.2%; for `CC1=Nc2ccccc2/C1=C/c1c(N)n2c(S(=O)(=O)C(C)C)nsc2nc1=O`, 21.2%. For the compound `CN1CCN(C(=O)c2ccc(CSc3nc4ccncc4n3Cc3ccc(F)cc3)cc2)CC1`, the “hERG current change (%, negative = inhibition) at 10uM” value is recorded as 0.727%. Turning to `O=[N+]([O-])c1ccc(Cl)c(Cl)c1Cl`, the “hERG current change (%, negative = inhibition) at 10uM” value was -5.28%.

For the compound `O=C(C1CCCN(S(=O)(=O)c2cnc[nH]2)C1)N1CCN(Cc2ccccc2)CC1` (stereo not shown), the “hERG current change (%, negative = inhibition) at 10uM” value is on record as 6.16%. For `Cn1c(-c2ccc(Br)cc2)cnc1NCc1cccnc1` the value was -41.3%; for `CNC(=O)CC(=O)Nc1ccccc1C(=O)O`, 27.5%.

Turning to `COc1ccc(CCNC(=O)c2c[nH]c3ccc(F)cc3c2=O)cc1OC`, the “hERG current change (%, negative = inhibition) at 10uM” value is reported as 17.6%.

Consider `COc1ccc(C2c3ccc(O)cc3Oc3ncn(CCCO)c(=N)c32)cc1` (stereo not shown), for which the “hERG current change (%, negative = inhibition) at 10uM” value is -22.8%. For the compound `COc1cc(C(=O)NCc2nnc(SCC(=O)Nc3c(C)cc(C)cc3C)o2)cc(OC)c1OC`, the “hERG current change (%, negative = inhibition) at 10uM” value was 14.4%.

Regarding `Cc1cc(C)cc(NC(=O)c2cccc(NC(=O)c3ccco3)c2)c1`, the “hERG current change (%, negative = inhibition) at 10uM” value is given as -25.4%.

On to `Cc1cc(C(=O)CSC(C)c2nc3ccccc3c(=O)[nH]2)c(C)n1C` (stereo not shown), for which the “hERG current change (%, negative = inhibition) at 10uM” value is reported as 5.72%.

As for `COc1ccc(-c2nonc2NC(=O)c2oc3ccc(F)cc3c2C)cc1OC`, the “hERG current change (%, negative = inhibition) at 10uM” value is 13.8%. The figure for `O=C(NCC(=O)N1CCCC1)c1cccs1` is -5.03%; for `O=C(NC1CCCCC1)c1cc(F)cc2c1OCOC2` it is 7.49%. The figure for `CC(C)C1C(C#N)=C(N)SC(N)=C1C#N` is 14.9%; for `O=C(CN(c1ccccn1)S(=O)(=O)c1ccc(F)cc1)Nc1ccc(F)cc1F` it is 2.34%; for `S=C1Nc2ccccc2Sc2ccc(Cl)cc21` it is -3.77%. In the case of `CCOC(=O)CSc1nc2sc3c(c2c(=O)n1-c1ccc(OC)cc1)CCN(C)C3`, the “hERG current change (%, negative = inhibition) at 10uM” value is reported as -5.76%.

As for `CCCn1cc(CN2CCCC(C(=O)c3cccc(OC(C)C)c3)C2)c(C)n1` (stereo not shown), the “hERG current change (%, negative = inhibition) at 10uM” value is recorded as -35.5%. The figure for `O=c1ccccn1Cc1ccccc1F` is 16.4%; for `Cc1ccc(-c2csc3nc(C(C)C)oc(=O)c23)c(C)c1` it is 16.9%; for `COC(=O)c1ccc(C(=O)OC)c(NC(=O)CN(C)Cc2ccc(Cl)c(Cl)c2)c1` it is 5.46%. Regarding `Cc1ccc(C(C(=O)NCc2ccccc2)N(C(=O)c2csnn2)C2CC2)cc1` (stereo not shown), the “hERG current change (%, negative = inhibition) at 10uM” value is recorded as -6.35%.

As to `Nc1c2c(nc3ccc(Br)cc13)N(C1CCCCC1)CC2.O=C(O)C(=O)O`, the “hERG current change (%, negative = inhibition) at 10uM” value is -70.1%. For `CC(=O)c1ccc(NC(=O)c2ccc(N3C(=O)c4cccnc4C3=O)cc2)cc1` the value was 2.38%. With `COc1ccccc1-n1c(SCC(=O)NC2CCS(=O)(=O)C2)nc2cc([N+](=O)[O-])ccc21` (stereo not shown), the “hERG current change (%, negative = inhibition) at 10uM” value is listed as -16.2%.

For `O=C(CSc1nc2ccccc2c(=O)[nH]1)N1CCN(c2ccccc2)CC1`, the “hERG current change (%, negative = inhibition) at 10uM” value is 14.1%. The figure for `CC1CCCCC12NC(=O)N(CC(=O)NCC(=O)Nc1ccc(F)c(F)c1F)C2=O` (stereo not shown) is 8.7%. For `O=C(NCCN1CCN(c2cccc(Cl)c2)CC1)C1CCCN(S(=O)(=O)c2cnc[nH]2)C1` (stereo not shown), the “hERG current change (%, negative = inhibition) at 10uM” value is reported as -3.12%. For `O=C(CC(c1cccs1)S(=O)(=O)c1ccccc1)c1ccc(F)cc1` (stereo not shown) the value was 9.53%. For `Cc1cc(C)c(S(=O)(=O)c2cccc(Br)c2C)c(=O)[nH]1` the value was 18.4%. The figure for `CC(C)(C)OC(=O)N1CCOCCOCCNCCOCCOCC1` is 6.98%; for `CC(C)c1ccc(/C=C/C(=O)NCCCc2ccccc2)cc1` it is -0.832%.

For the compound `CCn1cnc2c1c(=O)n(CC(=O)NCc1ccccc1)c(=O)n2Cc1ccccc1`, the “hERG current change (%, negative = inhibition) at 10uM” value came to 0.683%. The figure for `COc1ccc(/C=C2\SC(=S)N(CCC(=O)NC3CCCC3)C2=O)cc1OC` is 1.5%. For `Cc1cccc(N2CCN(S(=O)(=O)c3cc(-c4cc(C)no4)ccc3C)CC2C)c1` (stereo not shown) the value was 18.9%. Turning to `CN(C)C(CNC(=O)c1ccc(S(=O)(=O)Nc2ccccc2F)cc1)c1ccco1` (stereo not shown), the “hERG current change (%, negative = inhibition) at 10uM” value is reported as -15%.

As for `COc1ccc(C2N=C(N)N=C(N)N2c2ccccc2)cc1OC.Cl` (stereo not shown), the “hERG current change (%, negative = inhibition) at 10uM” value is on record as -1.46%.

Turning to `COCCn1c(-c2ccccc2)nc2oc3cc(OC)ccc3c(=O)c2c1=O`, the “hERG current change (%, negative = inhibition) at 10uM” value is -2.27%. For `Cc1onc(-c2ccccc2)c1C(=O)Nc1ccc(S(=O)(=O)Nc2nccs2)cc1` the value was 9.28%. The figure for `CN(CC(=O)Nc1cccc(F)c1)C(=O)c1cccnc1Sc1ccc(Cl)cc1` is -7.82%; for `CC(C)CN(CC(C)C)S(=O)(=O)N1CCC(C(=O)NC2CCCCCCC2)CC1` it is 0.658%. The figure for `O=C(NCc1ccc2c(c1)OCO2)c1ccc(Br)s1` is 6.32%; for `CCOC(=O)CN/C=C(\C#N)c1ccc(F)cc1` it is 43.2%. In the case of `O=C(CN1CCCC1)Nc1c(Cl)cccc1Cl`, the “hERG current change (%, negative = inhibition) at 10uM” value was found to be 19.9%. For `COC(=O)CN(c1ccc(C)cc1)S(=O)(=O)c1ccc2c(c1)n(C)c(=O)c(=O)n2C` the value was -12.4%; for `COc1ccc(C(F)(F)F)cc1NC(=O)c1nc2nc(C)cc(C(F)F)n2n1`, 6%. The figure for `O=C(CCCN1C(=O)c2cccc3cccc(c23)C1=O)NCc1cccnc1` is 0.34%; for `Cc1cc(Cl)ccc1OCC(=O)Nc1ccccc1C(=O)N1CCOCC1` it is -6.01%. Regarding `Cc1cc(CNC(=O)COC(=O)Cn2[nH]c(=O)c3ccccc3c2=O)cc(C)c1O`, the “hERG current change (%, negative = inhibition) at 10uM” value was determined as 27.3%. On to `COc1ccc(C(=O)NC(C(=O)NCCc2ccc3c(c2)OCCO3)C(C)C)cc1` (stereo not shown), for which the “hERG current change (%, negative = inhibition) at 10uM” value stood at 8.77%.

On to `O=S(=O)(Cc1ccccc1Cl)N1CCN(Cc2ccc3c(c2)OCO3)CC1`, for which the “hERG current change (%, negative = inhibition) at 10uM” value is given as -29.4%. Regarding `CC1CCCN(C(=O)CCNS(=O)(=O)c2ccc3c(c2)oc(=O)n3C)C1` (stereo not shown), the “hERG current change (%, negative = inhibition) at 10uM” value stood at 11.5%. Take `COc1cc(OC)cc(C(=O)N2CCN(C(=O)c3cccs3)CC2)c1`: the “hERG current change (%, negative = inhibition) at 10uM” value stood at 3.72%.

With `Cc1cccnc1NC(=O)Nc1cccs1`, the “hERG current change (%, negative = inhibition) at 10uM” value is recorded as 12.4%. In the case of `NNC(=O)c1cc2c(s1)CCCCCC2`, the “hERG current change (%, negative = inhibition) at 10uM” value was 13%. In the case of `CCOc1cc(/C=C/c2ccc3cccc([N+](=O)[O-])c3n2)ccc1O`, the “hERG current change (%, negative = inhibition) at 10uM” value is on record as -17.8%. The figure for `CN(C)CCCN1C(=O)c2cc3ccccc3cc2C1=O` is -16%; for `N#C/C(=N\Nc1cccc2ccccc12)c1nnc2n1CCCCC2` it is 1.66%; for `COc1cccc(NC(=O)CCSc2ccc(C)cc2)c1` it is -3.22%. With `COc1cccc(NC(=O)C2CCCN2C(=O)OCc2ccccc2)c1` (stereo not shown), the “hERG current change (%, negative = inhibition) at 10uM” value is -9.77%. `CCC(C)NC(=O)C1CCN(S(=O)(=O)c2ccc3nc4c(c(C(=O)O)c3c2)CCCCC4)CC1` (stereo not shown): the “hERG current change (%, negative = inhibition) at 10uM” value was 11.2%. In the case of `CC(NCc1ccccc1O)c1ccccc1` (stereo not shown), the “hERG current change (%, negative = inhibition) at 10uM” value is recorded as 6.03%. With `COc1ccc2oc(=O)c(C(=O)NCC3CCCO3)cc2c1` (stereo not shown), the “hERG current change (%, negative = inhibition) at 10uM” value turned out to be 3.67%. Regarding `Cc1occc1-c1nnc(SCC(=O)Nc2ccccc2N2CCCCC2)n1C`, the “hERG current change (%, negative = inhibition) at 10uM” value is on record as -38%. Consider `Clc1ccc(CN2CCSCC2)c(Cl)c1`, for which the “hERG current change (%, negative = inhibition) at 10uM” value came out at 12%.

As to `COc1ccc(C(=O)/C=C2\NCCc3cc(OC)c(OC)cc32)cc1OC`, the “hERG current change (%, negative = inhibition) at 10uM” value came out at 11.6%. The figure for `COC(=O)c1ccc(NC(=O)CCCCCn2nnc3ccccc3c2=O)cc1` is 11.7%. For `COc1ccc(CN(Cc2ccncc2)C(=O)CCC(=O)O)cc1` the value was 0.89%; for `CC(=O)Oc1ccc(C(=O)Nc2cccc(C(=O)Nc3ccccc3C(=O)O)c2)cc1`, 21.5%; for `COCCCNC(=O)CN(Cc1ccc(Cl)cc1)S(C)(=O)=O`, 10.1%. The figure for `CCc1nnc(SCCSc2nnc(CC)n2N)n1N` is 13.9%; for `COCC(=O)N(CCc1ccccc1)Cc1cc2cc(C)ccc2nc1Cl` it is -13.6%. On to `CCN(CC)S(=O)(=O)c1cc([N+](=O)[O-])ccc1N=Nc1c(O)n(C)c2ccccc12`, for which the “hERG current change (%, negative = inhibition) at 10uM” value is on record as 3.43%. Take `CCOc1ccc(C(CC(=O)O)NC(=O)CCCOc2ccc(Cl)cc2C)cc1` (stereo not shown): the “hERG current change (%, negative = inhibition) at 10uM” value is reported as 5.77%. Regarding `O=C(Cc1ccc(O)cc1)N/N=C/c1cccnc1`, the “hERG current change (%, negative = inhibition) at 10uM” value was determined as 10.2%. For the compound `Cc1ccccc1Nc1nnc(-c2ccc(C(=O)NCCO)cc2)c2ccccc12`, the “hERG current change (%, negative = inhibition) at 10uM” value is on record as -65.9%. For `COCCN1CC(C(=O)NCc2ccccc2-n2ccnc2C)CCC1=O` (stereo not shown) the value was 1.14%; for `CCN(CC(=O)Nc1cccc(C(C)=O)c1)S(=O)(=O)c1ccc(C)cc1`, -15.3%; for `Cc1cc(C(=O)NNC(=O)NC(C)C)no1`, 15.3%.
